We go through 28 molecules from PubChem BioAssay AID1745853 (National Center for Advancing Translational Sciences (NCATS), 2022).

This is one part of the list. Shown are side measurements of this screen, not its main read-out; they come without a call.

Holding throughout (assay): Primary Screen for Target Class Profiling of Small Molecule Inhibitors of Methyltransferases
Assay [1] has as its target Glycine N-methyltransferase (Homo sapiens) (UniProt Q14749). Conditions: purified enzyme, MTase-Glo SAH luminescence; measured here: GNMT inhibition; at 40 µM; stronger effect = lower value. In a few lines:
(§1)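 Each enzyme was reacted with SAM and its substrate, with compounds tested once at 40 uM; SAH formed was read by MTase-Glo luminescence.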

For assay [2], the target named is Guanidinoacetate N-methyltransferase (Homo sapiens) (UniProt Q14353). Conditions: purified enzyme, MTase-Glo SAH luminescence; measured here: GAMT inhibition; at 40 µM; stronger effect = lower value. The method in brief: as §1
In assay [3] the target is Histamine N-methyltransferase (Homo sapiens) (UniProt P50135). The settings on record: purified enzyme, MTase-Glo SAH luminescence; measured here: HNMT inhibition; at 40 µM; stronger effect = lower value. The method in brief: as §1
Assay [4] addresses Nicotinamide N-methyltransferase (Homo sapiens) (UniProt P40261). Conditions: purified enzyme, MTase-Glo SAH luminescence; measured here: NNMT inhibition; at 40 µM; stronger effect = lower value. In a few lines: as §1
Assay [5] has as its target Phenylethanolamine N-methyltransferase (Homo sapiens) (UniProt P11086). The settings on record: purified enzyme, MTase-Glo SAH luminescence; measured here: PNMT inhibition; at 40 µM; stronger effect = lower value. In a few lines:
as §1
% is scaled to controls: 0 for no effect and ±100 for the full control effect.

On to `O=S(=O)(c1cccc(-c2nc(-c3ccccc3)no2)c1)N1CCCc2ccccc21`, for which the activity change, negative = inhibition in assay [1] is -7.01%; in assay [2], 2.23%; in assay [3] it was -3.62%; in assay [4], -4.1%; in assay [5], -3.56%.
On to `COc1ccc(C2(CNC(=O)c3ccc(NC(=O)c4ccco4)cc3)CCOCC2)cc1`, for which the activity change, negative = inhibition was -1.59% in assay [1]; -1.43% in assay [2]; 5.42% in assay [3]; -12.4% in assay [4]; -2.39% in assay [5].
Turning to `CC(C)NC(=O)c1ccc2c(=O)n(C(C)C)c3nn(CC(=O)NCc4ccccc4)c(=O)n3c2c1`, the activity change, negative = inhibition was -1.21% in assay [1]; 3.93% in assay [2]; 1.38% in assay [3]; -5.6% in assay [4]; 3.31% in assay [5].
In the case of `CC(=O)OC1CC2C(C)(C)C(=O)C=CC2(C)C2CC(=O)C3=C(CCC3C3=CC(O)OC3=O)C12C` (stereo not given), the activity change, negative = inhibition in assay [1] is 0%; in assay [2], 4.78%; in assay [3], 4.2%; in assay [4] it was -12.1%; in assay [5], 3.07%.
The like results for `CCOc1cccc(CN2CCCC(CNC(=O)c3cccc(OC)c3OC)C2)c1` (stereo not given) were, in that order, -4.38%, -4.46%, -2.13%, -7.57% and -6.81%.
Consider `CCOc1ccc(CN2C(=O)c3nc4ccccc4n3CC2(C)C(=O)NC2CCCCC2C)cc1` (stereo not given), for which the activity change, negative = inhibition in assay [1] was -7.88%; in assay [2], 4.28%; in assay [3], -3.19%; in assay [4], -7.7%; in assay [5], -2.66%.
With `O=S(=O)(c1ccccc1)c1cnc2c(N3CCNCC3)cccc2c1`, the activity change, negative = inhibition was -1.99% in assay [1]; -6.63% in assay [2]; -6.33% in assay [3]; -28.4% in assay [4]; -21.1% in assay [5].
Consider `C=CCn1c(=O)c2ccc(C(=O)NCC(C)C)cc2n2c(=O)n(CC(=O)Nc3ccccc3C)nc12`, for which the activity change, negative = inhibition is -3.86% in assay [1]; -0.757% in assay [2]; -4.04% in assay [3]; -17.4% in assay [4]; -9.07% in assay [5].
The like results for `O=C(NC1CCN(Cc2cccc(-c3cccs3)c2)CC1)c1cccc(Cl)c1` were, in that order, -2.65%, 0.739%, -12.7%, -4.84% and -6.26%.
With `CCc1cc2c(cc3n2CC(C)(C(=O)NC2CCCCCC2)N(Cc2ccccc2C)C3=O)s1` (stereo not given), the activity change, negative = inhibition in assay [1] is -1.16%; in assay [2], 4.2%; in assay [3], 0.829%; in assay [4] it was 4%; in assay [5], -5.35%.
For `COc1ccc(-c2ccccc2NC(=O)C2CCCN(CC=C(C)C)C2)cc1` (stereo not given) the same measures were -1.91%, 0.121%, -2.57%, -8.99% and 11.3%.
Turning to `COC(=O)c1ncn2c1C(=O)N(Cc1ccccc1Cl)C(C)(C(=O)NCc1ccccc1OC)C2` (stereo not given), the activity change, negative = inhibition in assay [1] is 0.195%; in assay [2] it was 0.017%; in assay [3], -0.525%; in assay [4], 2%; in assay [5], 3.06%.
On to `NC(=O)N1CCC(CC(=O)N2CCC(C3c4ncc(Br)cc4CCc4cc(Cl)cc(Br)c43)CC2)CC1` (stereo not given), for which the activity change, negative = inhibition in assay [1] is -19.8%; in assay [2], 7.71%; in assay [3] it was -5.39%; in assay [4] it was -73.9%; in assay [5], 1.66%.
With `CCCCOc1ccccc1-c1cc2n(n1)CC(C)(C(=O)NC1CCCCCC1)N(CCOC)C2=O` (stereo not given), the activity change, negative = inhibition is -0.278% in assay [1]; 5.32% in assay [2]; -0.736% in assay [3]; -2.23% in assay [4]; 0.345% in assay [5].
For `CCc1cccc(NC(=O)Cn2nc3n(CCC(C)C)c(=O)c4ccc(C(=O)NC(C)C)cc4n3c2=O)c1` the same measures were 0.628%, 5.91%, -2.93%, 1.54% and 2.93%.
Take `CCOC(=O)CNC(=O)N1CCn2cccc2C1C(C)C` (stereo not given): the activity change, negative = inhibition turned out to be 6.26% in assay [1]; 1.21% in assay [2]; 2.67% in assay [3]; 3.33% in assay [4]; 6.82% in assay [5].
For the molecule `O=C(CCc1nnc2n(CCc3ccccc3)c(=O)c3ccccc3n12)NCc1ccc2c(c1)OCO2`, the activity change, negative = inhibition is -0.129% in assay [1]; 4.33% in assay [2]; 4.43% in assay [3]; 1.39% in assay [4]; -6.36% in assay [5].
Take `CC1(C)C(=O)CCC2(C)C1C(O)C=C1COC(=O)C12O` (stereo not given): the activity change, negative = inhibition in assay [1] was 1.46%; in assay [2], -3.51%; in assay [3], 11.4%; in assay [4], -15.3%; in assay [5], -11.7%.
On to `COc1ccc(N2C(=O)c3cc4occc4n3CC2(C)C(=O)NC2CCCCCC2)cc1Cl` (stereo not given), for which the activity change, negative = inhibition was -3.33% in assay [1]; 3.75% in assay [2]; -0.227% in assay [3]; -1.23% in assay [4]; -7.87% in assay [5].
Regarding `CN1C(=O)c2cc(C(=O)NCCc3ccccc3)nn2CC1(C)C(=O)NC1CCCC1` (stereo not given), the activity change, negative = inhibition in assay [1] turned out to be 8.59%; in assay [2] it was 0%; in assay [3], 4.59%; in assay [4], 9.63%; in assay [5], 1.9%.
The like results for `O=C(CCc1nnc2n(Cc3ccc(Cl)cc3)c(=O)c3ccccc3n12)NCCCN1CCCC1=O` were, in that order, -6.84%, 3.6%, 1.57%, 1.34% and -0.753%.
In the case of `Cc1cnc(N2CC[C@](C)(O)[C@@H](O)C2)nc1N(C)C`, the activity change, negative = inhibition in assay [1] was -0.496%; in assay [2] it was -0.127%; in assay [3], -0.71%; in assay [4] it was -4.76%; in assay [5], -1.35%.
The like results for `C=CCN(C)C(=O)C[C@@H]1c2nc(NC(=O)c3ccco3)sc2C[C@@H]2[C@](C)(CO)[C@H](O)CC[C@]21C` were, in that order, -6.69%, -4.11%, -4.55%, -8% and 1.02%.
Take `COC(=O)c1cc2n(n1)CC(C)(C(=O)NC1CCCCCC1)N(c1ccc(C)c(Cl)c1)C2=O` (stereo not given): the activity change, negative = inhibition in assay [1] was -8.8%; in assay [2] it was -7.19%; in assay [3] it was -13.5%; in assay [4], -6.89%; in assay [5], -7.62%.
Consider `CCCn1c(=O)c2ccc(Cl)cc2n2c(SCC(=O)Nc3ccc(C)cc3Cl)nnc12`, for which the activity change, negative = inhibition in assay [1] is -3.64%; in assay [2], -4.38%; in assay [3], 8.4%; in assay [4] it was -9.86%; in assay [5], -2.48%.
With `CCOc1cc(C(C)(C)C)ccc1C1=NC(C)(c2ccc(Cl)cc2)C(C)(c2ccc(Cl)cc2)N1C(=O)N1CCN(CCCS(C)(=O)=O)CC1` (stereo not given), the activity change, negative = inhibition is 1.35% in assay [1]; 1.64% in assay [2]; -3.85% in assay [3]; -33% in assay [4]; -6.04% in assay [5].
In the case of `COc1ccc(NS(=O)(=O)c2cc3[nH]c(=O)[nH]c3cc2C)cc1`, the activity change, negative = inhibition in assay [1] was -3.86%; in assay [2] it was 1.23%; in assay [3] it was 0.963%; in assay [4] it was 1.69%; in assay [5] it was -17.2%.
For `COc1ccc(S(=O)(=O)c2nnn3c2nc(Nc2ccc(C)cc2)c2ccccc23)cc1` the same measures were -7.61%, 0.299%, -1.4%, 1.27% and -7.16%.
